Measured values as given in PubChem BioAssay AID1671194 (National Center for Advancing Translational Sciences (NCATS), 2021).
The campaign covered roughly 140,000 compounds. About 240 (0.17%) were called active. The shares of active, inactive and inconclusive entries below differ from those in the screen. Calls come from the whole dose curve; as a rule, active = well fitted inhibition curve with a large enough effect; inconclusive = small, poorly fitted or top-dose-only effect; inactive = no such curve, though single readings can be large or run the other way. Where the call is inconclusive, the potency comes from a doubtful curve fit.

Assay: Primary qHTS assay for inhibitors of alpha-synuclein gene (SNCA) expression; note: nearly all actives have a fitted effect of over 45% in size
Details: HEK-293 SNCA-luciferase knock-in, luminescence, 24 h; series mostly up to 57.2 µM
Potency is the fitted concentration of half-maximal effect; tags give direction and shape of the fitted curve.

Compound | Potency
CCCCc1ccc(NC(=O)CN2C(=O)NC(c3ccc(C)cc3)C3=C2COC3=O)cc1 (stereo not drawn) | inactive
CCN(CC)c1cc(C)c2cc(NC(=O)/C=C/c3cc(OC)c(OC)c(OC)c3)ccc2n1 | inconclusive: 2 µM [inhibitor, full curve, poor fit]
CC(=O)N1CCC(Oc2ccc(Cl)cc2C(=O)NCCOc2cccnc2)CC1 | inconclusive: 3.16 µM [inhibitor, partial curve, poor fit]
O=C(NCc1ccnc2[nH]ccc12)c1ccccc1 | inactive
CN(Cc1ccccc1)C(=O)c1ccc(CSc2nc3cccnc3n2Cc2ccccc2F)cc1 | inconclusive: 39.8 µM [inhibitor, single point]
COc1ccc(CCNC(=O)C2CCN(c3ccnc4ccnn34)CC2)cc1 | inactive
COC(=O)c1cccc(-c2nccn2CC(O)c2ccccc2)c1 (stereo not drawn) | inconclusive: 39.8 µM [inhibitor, single point]
CC(C)N(C(=O)CSc1cn(CC(=O)N2CCCCCC2)c2ccccc12)C(C)C | inconclusive: 39.8 µM [inhibitor, single point]
CCCNC(=O)[C@@H]1Cc2cn(Cc3ccncc3)c3cccc(c23)[C@H](CC(C)C)N1 | inconclusive: 17.8 µM [inhibitor, partial curve, poor fit]
CC(C)c1noc(-c2cn(C3CCN(C(=O)c4ccc(F)cc4)C3)nn2)n1 (stereo not drawn) | inactive
Cc1nc(CN2C[C@H](C(=O)Nc3cccc(Cl)c3)C[C@@H]2c2ccc(F)cc2)cs1 | inconclusive: 50.1 µM [inhibitor, partial curve, poor fit]
CCC(=O)N1CCCc2cc(S(=O)(=O)N3CCC(C(=O)NCc4ccc(F)cc4)CC3)ccc21 | inconclusive: 2.51 µM [inhibitor, single point]
O=C(Nc1ccccc1)N[C@H]1CO[C@H]2[C@@H]1OC[C@@H]2Nc1nccc(-c2cccs2)n1 | inactive
Cc1ccc(C#N)c(N2CCC(c3nnc(Cn4cncn4)n3C)CC2)n1 | inactive
O=C1C[C@@H](c2ccc(O)cc2)Oc2cc(O)cc(O)c21 | inconclusive: 48.2 µM [inhibitor, single point]
O=C(O)c1ccc(CN2CCOC[C@H]2c2ncc(-c3cccnc3)[nH]2)cc1 | inconclusive: 56.2 µM [inhibitor, single point]
Cc1cc(Cl)ccc1OCC(=O)N(Cc1ccco1)Cc1ccccc1F | inconclusive: 7.08 µM [inhibitor, partial curve, poor fit]
COc1ccc(CNC(=O)CSc2ncc3c(n2)-c2ccc(Cl)cc2N(Cc2ccccc2)S3(=O)=O)cc1 | inconclusive: 11.2 µM [inhibitor, single point]
